# Test results published in PubChem BioAssay (Tox21).
# Inconclusive means that the source gave no clear call. Such entries were picked first, then a sample of the others. For some of these results: Potencies of inconclusive entries are doubtful fits and often do not repeat. Active and inactive are the calls of the source. Unless noted, calls come from the whole dose curve.
# Columns and labels:
# [1] = molecular target: Peroxisome proliferator-activated receptor delta (Homo sapiens) (UniProt Q03181); experiment: qHTS assay to identify small molecule agonists of the peroxisome proliferator-activated receptor delta (PPARd) signaling pathway (AID 743212); details: HEK293H PPARd-UAS-bla, beta-lactamase FRET ratio, 17 h; activation: at 62.6 µM (top of the series) unless noted; note: potency is the fitted concentration of half-maximal effect; for activation: % is set by controls: 0 for no effect and ±100 for the full control effect
# UniProt Q03181, sequence (Q03181 whole entry, looked up): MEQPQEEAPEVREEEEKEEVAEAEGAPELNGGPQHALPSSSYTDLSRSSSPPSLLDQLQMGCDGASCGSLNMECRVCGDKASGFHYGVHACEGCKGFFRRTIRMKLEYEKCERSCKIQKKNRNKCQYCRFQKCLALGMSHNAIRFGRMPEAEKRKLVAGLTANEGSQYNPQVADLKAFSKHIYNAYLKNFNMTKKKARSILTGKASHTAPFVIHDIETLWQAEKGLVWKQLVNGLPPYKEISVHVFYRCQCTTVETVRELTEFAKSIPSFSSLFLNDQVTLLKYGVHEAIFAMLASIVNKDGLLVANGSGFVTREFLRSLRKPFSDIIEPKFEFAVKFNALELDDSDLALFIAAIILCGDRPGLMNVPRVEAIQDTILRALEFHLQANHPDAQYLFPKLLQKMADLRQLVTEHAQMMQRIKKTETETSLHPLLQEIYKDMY
# Method in brief: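 Beta-lactamase reporter read by fluorescence (LiveBLAzer B/G FRET, 2 h, room temperature). Test agents, in DMSO, incubated at 37 C with PPARd-bla HEK293H cells.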
# [2] = molecular target: Vitamin D3 receptor (Homo sapiens) (UniProt P11473); experiment: qHTS assay to identify small molecule antagonists of the vitamin D receptor (VDR) signaling pathway (AID 743223; active = well fitted inhibition curve with a large enough effect in the signal ratio in the repeat runs, not every such curve was filed as active; inconclusive = weak or mixed curves, or effect the other way; inactive = no such curve, though single readings can be large or run the other way; the % refers to the signal ratio; note: potency is the fitted concentration of half-maximal effect; for activity change, negative = inhibition: % is set by controls: 0 for no effect and ±100 for the full control effect); details: VDR-UAS-bla HEK293T, beta-lactamase FRET ratio, 16 h; activity change, negative = inhibition: at 61 µM (top of the series) unless noted
# UniProt P11473, sequence (P11473 whole entry, looked up): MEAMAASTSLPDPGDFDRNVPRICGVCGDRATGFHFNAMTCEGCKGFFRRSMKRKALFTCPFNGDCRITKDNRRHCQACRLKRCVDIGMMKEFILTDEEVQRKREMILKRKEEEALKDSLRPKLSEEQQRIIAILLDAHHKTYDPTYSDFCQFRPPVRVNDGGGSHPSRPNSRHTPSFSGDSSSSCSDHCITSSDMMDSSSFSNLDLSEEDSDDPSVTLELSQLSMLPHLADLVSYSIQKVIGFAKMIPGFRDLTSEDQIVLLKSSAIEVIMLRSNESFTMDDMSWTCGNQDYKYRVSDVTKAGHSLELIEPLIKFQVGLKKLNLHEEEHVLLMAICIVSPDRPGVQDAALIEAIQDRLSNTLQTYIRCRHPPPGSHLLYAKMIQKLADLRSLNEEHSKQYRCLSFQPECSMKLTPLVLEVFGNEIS
# Method in brief: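 Quantitative HTS in VDR-bla reporter cells stimulated with 1alpha,25-dihydroxyvitamin D3, 3 nM final. Compound exposure 16 h, 37C, 5% CO2. Read-out: beta-lactamase FRET substrate fluorescence, 2 h RT.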
# [3] = qHTS assay to identify small molecule agonists of the endoplasmic reticulum stress response signaling pathway - cell viability counter screen (AID 1159517); note: nearly all actives have a fitted effect of over 50% in size; note: potency is the fitted concentration of half-maximal effect
# Method in brief: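 Cytotoxicity of test compounds toward ESRE-bla HeLa cells was assessed after 5 hr exposure. The luminescent CellTiter-Glo signal was measured 30 min after reagent addition.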
# [4] = qHTS assay to identify small molecule antagonists of the peroxisome proliferator-activated receptor delta (PPARd) signaling pathway - cell viability counter screen (AID 743213; active = well fitted curve in the direction sought with a large enough effect in the repeat runs; inconclusive = weak or mixed curves; inactive = no such curve, though single readings can be large; an effect the other way counts as inactive or inconclusive; note: nearly all actives have a fitted effect of over 50% in size; note: potency is the fitted concentration of half-maximal effect); details: PPARd-bla HEK293H viability, CellTiter-Glo luminescence, 17 h; viability change, negative = cytotoxic: at 62 µM (top of the series) unless noted
# Method in brief: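 HEK293H PPARd UAS-bla cells, 5 h pre-incubation, compound + L165041 300 nM final, 17 h 37 C; B/G FRET substrate 2 h RT; then CellTiter-Glo 30 min RT, luminescence.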
# [5] = qHTS assay to identify small molecule agonists of the vitamin D receptor (VDR) signaling pathway - cell viability counter screen (AID 743224; active = well fitted curve in the direction sought with a large enough effect in the repeat runs; inconclusive = weak or mixed curves; inactive = no such curve, though single readings can be large; an effect the other way counts as inactive or inconclusive; note: potency is the fitted concentration of half-maximal effect; nearly all actives have a fitted effect of over 50% in size); details: VDR-bla HEK293T viability, CellTiter-Glo luminescence, 16 h; activity change, negative = cytotoxicity: at 62.6 µM (top of the series)
# Method in brief: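 Cells: VDR-bla, 2,000/well, settled 4 h. Treatment: compounds in DMSO, 16 h, 37C/5% CO2. Readout: CellTiter-Glo luminescence after 30 min RT.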
# [6] = molecular target: Peroxisome proliferator-activated receptor delta (Homo sapiens) (UniProt Q03181); experiment: qHTS assay to identify small molecule antagonists of the peroxisome proliferator-activated receptor delta (PPARd) signaling pathway (AID 743215; active = well fitted inhibition curve with a large enough effect in the signal ratio in the repeat runs, not every such curve was filed as active; inconclusive = weak or mixed curves, or effect the other way; inactive = no such curve, though single readings can be large or run the other way; the % refers to the signal ratio;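 note: cells stimulated with agonist L165041 at 300 nM final during compound exposure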; note: potency is the fitted concentration of half-maximal effect); details: HEK293H PPARd-UAS-bla, beta-lactamase FRET ratio, antagonist, 17 h; ratio activity, negative = inhibition: at 62 µM (top of the series) unless noted
# Method in brief: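 Cells: HEK293H with a UAS-driven beta-lactamase reporter responsive to PPARd. Compounds were co-added with L165041 (300 nM, final) and incubated 17 h at 37 C before a 2 h room-temperature FRET substrate step and fluorescence reading.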
# [7] = qHTS assay to identify small molecule antagonists of the farnesoid-X-receptor (FXR) signaling pathway - cell viability counter screen (AID 743221; active = well fitted cell-killing curve with a large enough effect in the repeat runs, not every such curve was filed as active; inconclusive = weak or mixed curves, or effect the other way; inactive = no such curve, though single readings can be large or run the other way; note: potency is the fitted concentration of half-maximal effect; nearly all actives have a fitted effect of over 50% in size); details: FXR-bla HEK293T viability, CellTiter-Glo luminescence, 16 h; activity change, negative = cytotoxicity: at 62.6 µM (top of the series)
# Method in brief: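 Cytotoxicity is taken from ATP luminescence (CellTiter-Glo, 30 min, room temperature) in FXR-bla HEK 293T cells previously incubated 16 h at 37 C with compound and chenodeoxycholic acid at 50 uM final.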
# [8] = qHTS assay to identify small molecule antagonists of the vitamin D receptor (VDR) signaling pathway - cell viability counter screen (AID 743225; active = well fitted curve in the direction sought with a large enough effect in the repeat runs; inconclusive = weak or mixed curves; inactive = no such curve, though single readings can be large; an effect the other way counts as inactive or inconclusive; note: nearly all actives have a fitted effect of over 50% in size; note: potency is the fitted concentration of half-maximal effect); details: VDR-bla HEK293T viability, CellTiter-Glo luminescence, 16 h; viability change, negative = cytotoxic: at 61 µM (top of the series) unless noted
# Method in brief: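 Same-well multiplex: following 16 h treatment of HEK 293T cells carrying a UAS-driven beta-lactamase reporter with compound and agonist (3 nM final), and a 2 h FRET substrate step, CellTiter-Glo was added and luminescence read after 30 min.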
# [9] = molecular target: Vitamin D3 receptor (Homo sapiens) (UniProt P11473); experiment: qHTS assay to identify small molecule agonists of the vitamin D receptor (VDR) signaling pathway (AID 743222); details: HEK293T VDR-UAS-bla, beta-lactamase FRET ratio, 16 h; activation: at 63.5 µM (top of the series) unless noted; note: potency is the fitted concentration of half-maximal effect
# Method in brief: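 Cells carrying a VDR-driven beta-lactamase reporter are seeded at 2,000 per well and rested 4 h. Compounds in DMSO are added for 16 h at 37C, and FRET substrate fluorescence is measured after 2 h at room temperature.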
# [10] = qHTS assay to identify small molecule agonists of the farnesoid-X-receptor (FXR) signaling pathway - cell viability counter screen (AID 743218; active = well fitted curve in the direction sought with a large enough effect in the repeat runs; inconclusive = weak or mixed curves; inactive = no such curve, though single readings can be large; an effect the other way counts as inactive or inconclusive; note: nearly all actives have a fitted effect of over 45% in size; note: potency is the fitted concentration of half-maximal effect); details: FXR-bla HEK293T viability, CellTiter-Glo luminescence, 16 h; viability change, negative = cytotoxic: at 62.6 µM (top of the series) unless noted
# Method in brief: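 Cells were seeded, left 5 h at 37 C and 5% CO2, then dosed with compound in DMSO for 16 h. After the beta-lactamase FRET read, CellTiter-Glo was added and luminescence measured 30 min later.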
# [11] = molecular target: Bile acid receptor (Homo sapiens) (UniProt Q96RI1); experiment: qHTS assay to identify small molecule agonists of the farnesoid-X-receptor (FXR) signaling pathway (AID 743220; active = well fitted activation curve with a large enough effect in the signal ratio in the repeat runs, not every such curve was filed as active; inconclusive = weak or mixed curves, or effect the other way; the % refers to the signal ratio; note: % is set by controls: 0 for no effect and ±100 for the full control effect); details: HEK293T FXR-UAS-bla, beta-lactamase FRET ratio, 16 h; activation: at 62.6 µM (top of the series) unless noted
# UniProt Q96RI1, sequence (Q96RI1 whole entry, looked up): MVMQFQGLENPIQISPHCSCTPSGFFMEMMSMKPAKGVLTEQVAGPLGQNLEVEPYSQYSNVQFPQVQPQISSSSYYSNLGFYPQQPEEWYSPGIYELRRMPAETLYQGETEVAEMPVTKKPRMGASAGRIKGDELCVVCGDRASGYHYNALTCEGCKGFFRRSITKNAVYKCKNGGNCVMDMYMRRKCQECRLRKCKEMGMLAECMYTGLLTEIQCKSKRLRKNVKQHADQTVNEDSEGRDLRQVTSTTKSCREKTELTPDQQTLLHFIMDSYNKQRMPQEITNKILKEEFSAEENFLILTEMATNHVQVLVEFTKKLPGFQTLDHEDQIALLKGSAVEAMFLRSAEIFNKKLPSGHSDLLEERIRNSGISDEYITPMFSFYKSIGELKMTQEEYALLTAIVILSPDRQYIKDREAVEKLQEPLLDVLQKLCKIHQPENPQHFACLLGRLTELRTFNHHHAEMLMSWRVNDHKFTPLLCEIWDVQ
# Method in brief: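 FXR-UAS-bla HEK 293T cells carrying a UAS-driven beta-lactamase reporter were plated for 5 h at 37C/5% CO2, then exposed to DMSO-dissolved Tox21 10K compounds for 16 h at 37C. A LiveBLAzer B/G FRET substrate was loaded for 2 h at room temperature before fluorescence reading.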
# [12] = molecular target: Bile acid receptor (Homo sapiens) (UniProt Q96RI1); experiment: qHTS assay to identify small molecule antagonists of the farnesoid-X-receptor (FXR) signaling pathway (AID 743217; active = well fitted inhibition curve with a large enough effect in the signal ratio in the repeat runs, not every such curve was filed as active; inconclusive = weak or mixed curves, or effect the other way; inactive = no such curve, though single readings can be large or run the other way; the % refers to the signal ratio; note: % is set by controls: 0 for no effect and ±100 for the full control effect); details: HEK293T FXR-UAS-bla, beta-lactamase ratio, CDCA-stimulated, 16 h; activity change, negative = inhibition: at 62.6 µM (top of the series) unless noted
# Method in brief: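 Cells carrying a UAS-driven beta-lactamase reporter (GeneBLAzer FXR-UAS-bla HEK 293T) were plated and rested 5 h at 37 °C. Compounds in DMSO were added alongside chenodeoxycholic acid agonist at 50 uM final and left 16 h at 37 °C before FRET substrate readout.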
# Tags give direction and shape of the fitted curve or compound fluorescence and quenching.
smiles,measurement,setting,value
CCCCCCCCCCC=CC1CC(=O)OC1=O (centres undefined),activation,[1],inconclusive: 2.34%
same,"activity change, negative = inhibition",[2],inconclusive: 15.5% [at 78.8 µM]
same,Potency,[3],"inconclusive: 12.4 µM [cytotoxic, full curve, poor fit]"
CN(C)c1ccc(O)c2c1C[C@H]1C[C@H]3[C@H](N(C)C)C(=O)C(C(N)=O)=C(O)[C@@]3(O)C(=O)C1=C2O,Potency,[1],"inconclusive: 8.41 µM [rising, partial curve, poor fit]"
same,Potency,[4],"inconclusive: 12.3 µM [cytotoxic, single point]"
same,Potency,[2],inactive
same,Potency,[5],"inconclusive: 7.5 µM [cytotoxic, full curve]"
same,Potency,[3],inactive
Cc1ccc(OC(=O)CC(C)C)cc1,"ratio activity, negative = inhibition",[6],inconclusive: 23.1%
same,Potency,[7],"inconclusive: 1.74 µM [falling, full curve, poor fit]"
same,Potency,[8],inconclusive: 12.3 µM [cytotoxic]
same,Potency,[3],inactive
c1ccc2ncccc2c1,Potency,[4],"inconclusive: 9.81 µM [cytotoxic, partial curve, poor fit]"
same,Potency,[5],"inconclusive: 55.2 µM [cytotoxic, single point]"
same,Potency,[8],inactive
same,Potency,[3],"inconclusive: 0.0062 µM [cytotoxic, full curve, poor fit]"
CCCCC(CC)COC(=O)c1ccccc1O (centres undefined),Potency,[6],inactive
same,Potency,[3],inactive
CCCC(=O)OCOC(=O)C1=C(C)NC(C)=C(C(=O)OC)C1c1cccc(Cl)c1Cl (centres undefined),Potency,[4],inactive
same,Potency,[2],inactive
same,Potency,[3],"inconclusive: 0.535 µM [cytotoxic, partial curve, poor fit]"
BrC(Br)C(Br)Br,Potency,[4],inactive
same,Potency,[9],inactive
same,Potency,[3],"inconclusive: 48.8 µM [cytotoxic, single point]"
C[C@@H]1CN(c2c(F)c(N)c3c(=O)c(C(=O)O)cn(C4CC4)c3c2F)C[C@H](C)N1,"ratio activity, negative = inhibition",[6],inconclusive: -2.23% [at 28.9 µM]
same,Potency,[3],inactive
N[C@@H](Cc1c[nH]c2ccccc12)C(=O)O,Potency,[6],inactive
same,Potency,[2],inactive
same,Potency,[8],"inconclusive: 0.0275 µM [cytotoxic, full curve, poor fit]"
same,Potency,[3],inactive
NC(=O)c1cccc([N+](=O)[O-])c1,Potency,[6],inactive
same,Potency,[3],"inconclusive: 21.8 µM [rising, single point]"
CCCCCCCCCCCCCCCCBr,Potency,[6],inactive
same,Potency,[8],inactive
same,Potency,[3],"inconclusive: 0.0527 µM [rising, full curve, poor fit]"
C=CC(C)(CCC=C(C)C)OC(=O)CC (centres undefined),Potency,[10],inactive
same,Potency,[3],inactive
C=CCOC(=O)COCCC(C)C,Potency,[10],"inconclusive: 21.5 µM [rising, partial curve, poor fit]"
same,Potency,[3],"inconclusive: 7.62 µM [partial curve, poor fit]"
OC(Cn1cncn1)(Cn1cncn1)c1ccc(F)cc1F,Potency,[4],"inconclusive: 0.0094 µM [cytotoxic, full curve, poor fit]"
same,"viability change, negative = cytotoxic",[10],inconclusive: -43.5% [cytotoxic]
same,Potency,[9],inactive
same,Potency,[2],inactive
same,Potency,[3],"inconclusive: 19.5 µM [cytotoxic, partial curve, poor fit]"
CCOC(=O)Oc1ccc(CCNC(=O)[C@H](CCSC)NC(C)=O)cc1OC(=O)OCC,Potency,[10],inactive
same,Potency,[3],"inconclusive: 15.1 µM [cytotoxic, single point]"
O=C(O)CCC(=O)OC[C@@H](NC(=O)C(Cl)Cl)[C@H](O)c1ccc([N+](=O)[O-])cc1,Potency,[10],inactive
same,Potency,[3],"inconclusive: 0.12 µM [rising, full curve, poor fit]"
O=C(O)c1cc(=O)c2ccccc2o1,Potency,[4],inactive
same,Potency,[2],inactive
same,Potency,[3],"inconclusive: 6.74 µM [cytotoxic, single point]"
O=C(O)c1ccc2cc(C(=O)O)ccc2c1,Potency,[4],"inconclusive: 12.4 µM [cytotoxic, single point]"
same,Potency,[2],inactive
same,Potency,[3],"inconclusive: 6.22 µM [rising, partial curve, poor fit]"
CCCN1CCCC[C@H]1C(=O)Nc1c(C)cccc1C,Potency,[4],"inconclusive: 33.5 µM [cytotoxic, single point]"
same,Potency,[11],inactive
same,activation,[9],inconclusive: 0.444%
same,Potency,[3],inactive
CC(CO)Oc1ccccc1 (centres undefined),Potency,[4],"inconclusive: 0.201 µM [cytotoxic, single point]"
same,Potency,[8],"inconclusive: 0.636 µM [rising, full curve, poor fit]"
same,Potency,[3],"inconclusive: 5.66 µM [rising, full curve, poor fit]"
CNCc1ccccc1,Potency,[4],inactive
same,activation,[11],inconclusive: -3.93%
same,Potency,[3],inactive
CCCCCCCCCCCC(C)=O,Potency,[6],"inconclusive: 43.6 µM [activator, partial curve]"
same,Potency,[2],"inconclusive: 43.6 µM [activator, partial curve, poor fit]"
same,Potency,[3],inactive
CC(C)C1CCC(C(=O)N[C@H](Cc2ccccc2)C(=O)O)CC1 (some centres undefined),Potency,[4],"inconclusive: 13.3 µM [cytotoxic, partial curve, poor fit]"
same,Potency,[9],"inconclusive: 0.0053 µM [rising, full curve, poor fit]"
same,Potency,[3],"inconclusive: 15.1 µM [cytotoxic, single point]"
CCCCCCCCCCCCCBr,Potency,[12],inactive
same,"viability change, negative = cytotoxic",[8],inconclusive: -2.29% [cytotoxic]
same,Potency,[3],inactive
CCc1ccc(Br)cc1,Potency,[4],inactive
same,Potency,[10],"inconclusive: 56.4 µM [rising, single point]"
same,Potency,[3],"inconclusive: 22.5 µM [rising, single point]"
Cc1cccn2c(=O)c(-c3nnn[nH]3)cnc12,"ratio activity, negative = inhibition",[6],inconclusive: 2.46% [at 28.9 µM]
same,"viability change, negative = cytotoxic",[10],inconclusive: 38.1% [at 29.1 µM]
same,Potency,[3],inactive
